For orientation: inhibition means the change of the read-out against control, counted positive when it falls.

From PubChem BioAssay AID485344 (National Center for Advancing Translational Sciences (NCATS), 2010) come the findings set out here.

Among all 340,000 compounds or so, about 6,900 (2%) were called active. No stated cut-off is given here; in the data, active means inhibition above about 30%; inactive means below that, where a call was filed. This is a selection; strong and weak results do not stand in their true shares. Where no call is shown, the source filed none.

Chain of UniProt P14416 (P14416 whole entry, looked up): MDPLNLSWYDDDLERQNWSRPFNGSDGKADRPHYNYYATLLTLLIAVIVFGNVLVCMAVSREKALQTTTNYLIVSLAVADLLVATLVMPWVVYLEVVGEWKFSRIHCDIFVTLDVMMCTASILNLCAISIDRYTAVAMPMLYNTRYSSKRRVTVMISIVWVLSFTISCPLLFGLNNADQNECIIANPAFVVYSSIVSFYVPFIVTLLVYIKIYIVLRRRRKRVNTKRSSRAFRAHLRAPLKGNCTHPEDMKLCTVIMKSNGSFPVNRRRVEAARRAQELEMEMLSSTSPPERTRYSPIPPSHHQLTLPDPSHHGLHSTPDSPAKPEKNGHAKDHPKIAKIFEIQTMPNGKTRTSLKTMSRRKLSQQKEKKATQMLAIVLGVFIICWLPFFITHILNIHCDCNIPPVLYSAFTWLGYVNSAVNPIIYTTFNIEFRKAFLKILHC

This test deals with D(2) dopamine receptor (Homo sapiens) (UniProt P14416). Put plainly: HTS Assay for Allosteric Antagonists of the Human D2 Dopamine Receptor: Primary Screen for Antagonists. Further: 0% is about no effect. To be noted: HEK293 TREx D2 cells, calcium flux, dopamine EC80; at 10 µM; stronger effect = higher value. An outline of the steps:
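Measurement of antagonist activity uses fluorescent calcium dye in inducible HEK293 T-REx D2 cells: 10 s baseline, compound addition with 180 s read, EC80 dopamine addition with a further 180 s read.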
(In general: Calcium assays in cells follow changes in intracellular calcium, usually with a dye or a luminescent sensor.)
As for `Cc1nc2ccccn2c(=O)c1NC(=O)c1c(F)cccc1F`, the inhibition is -2.36%. Consider `COc1cccc(C(=O)Nc2cc(-c3cn4cccnc4n3)ccc2C)c1OC`, for which the inhibition worked out at 16.9%. Take `Cn1c(=O)oc2cc(S(=O)(=O)N3CCC(C(=O)N4CC=C(c5ccccc5)CC4)CC3)ccc21`: the inhibition is active: 40.6%. Turning to `CCOc1ccc(NC(=O)c2sc3nc4c(cc3c2N)CCCCCC4)cc1`, the inhibition was 14.9%. For the molecule `Cc1ncoc1C(=O)N1CCCC(C(=O)c2ccc(-c3ccccc3)cc2)C1` (configuration not stated), the inhibition is active: 51.7%. Consider `O=C(NC(=O)N1CCCCCC1)c1ccc(Cl)cc1`, for which the inhibition is active: 31.7%.

Turning to `CCOc1ccc(NC(=O)c2c(NC(=O)c3ccco3)sc3c2CCC(C(C)(C)C)C3)cc1` (configuration not stated), the inhibition was -18.4%. Then `O=C(Nc1cccc(C(F)(F)F)c1)C1CCN(c2nnc(-n3cccc3)s2)CC1`, with -9.03%; and `COc1cc(NS(=O)(=O)c2ccc(NC(=O)C(C)Oc3ccc(Cl)cc3Cl)cc2)nc(OC)n1` (configuration not stated), with 11.5%. Consider `Cc1nc2cccnc2n1-c1cccc(C(=O)NCc2ccc(OC(C)C)cc2)c1`, for which the inhibition is -1.3%. In the case of `O=C(O)CC(NS(=O)(=O)c1ccc(Cl)s1)c1ccccc1` (configuration not stated), the inhibition is -2.55%. Next, `COc1ccc(Nc2c(-c3ccc(Cl)cc3)nc3cnccn23)cc1OC`: 10.3%.

On to `CCC12CN3CC(C)(CN(C1)C3c1ccc(O)cc1O)C2=O` (configuration not stated), for which the inhibition was found to be 2.64%. As for `O=C(NCc1ccccc1Cl)C1CCN(S(=O)(=O)c2ccc3c(c2)CCCN3C(=O)C2CCC2)CC1`, the inhibition was found to be 3.84%. On to `Cc1cc(C)cc(Oc2coc3c(CN4CCN(C)CC4)c(O)ccc3c2=O)c1`, for which the inhibition is 3.35%. For `Cc1ccc2nc(/C(C#N)=C/c3cccc(Br)c3)[nH]c2c1`, the inhibition is -18.7%. Then `O=C(Cc1csc2ccccc12)NCc1cccc(Br)c1`, with -6.43%; and `CN(C)S(=O)(=O)n1cc(/C=C(\NC(=O)c2ccccc2F)C(=O)NCCCn2ccnc2)c2ccccc21`, with 7.14%.

`Cc1ccccc1CN1CCC(CNc2ncnc3onc(-c4ccc(Cl)cc4)c23)CC1`: the inhibition amounted to 2.42%. In the case of `Cc1ccc(NC(=O)C2CCCN(c3ncnc4c3nc3n4CCCCC3)C2)cc1F` (configuration not stated), the inhibition came to 0.13%. Regarding `CC(NC(=O)C1(c2cccs2)CCOCC1)c1ccccc1` (configuration not stated), the inhibition is -20.2%. For the molecule `CCCN(CCC)CCCNC(=O)c1cc2c(=O)oc3ccc(C)cc3c2s1`, the inhibition came out at 28.4%. Take `Cc1ccc(CN2CCSc3ccc(C(=O)Nc4ccc(Cl)cc4)cc32)cc1`: the inhibition was -10.7%. Then `CCOc1ccc(CCNC(=O)CCCc2cc(-c3ccc(OCC)cc3)on2)cc1`, with -19.2%; and `COc1cccc(CNC(=O)c2nnn(CC(=O)Nc3cc(Cl)ccc3C)c2N)c1`, with -0.898%; and `Cc1cccc(N2C(=O)C(CC(=O)Nc3cccc(F)c3)N(Cc3cccs3)C2=O)c1` (configuration not stated), with -5.58%. Then `Cc1ccc(Nc2cc(C)nc3nc(Cc4ccc(Cl)cc4)nn23)cc1`, with 1.43%. For `COc1cccc(CNC(=O)Cn2c(=O)oc3cc(S(=O)(=O)N4CCCC4)ccc32)c1`, the inhibition was -2.78%.

In the case of `Cc1ccc(-c2ccc(=O)n(Cc3ccc(F)cc3)n2)cc1`, the inhibition came out at 0.355%.

On to `CCC(=O)N1CCc2cc(Br)cc(S(=O)(=O)CCC(=O)Nc3cccc(CC)c3)c21`, for which the inhibition is 6.71%. Take `COC(=O)c1c(C)oc2ccc(N(C(=O)c3ccncc3)S(=O)(=O)c3cc(C)c(C)cc3C)cc12`: the inhibition was 13.9%. As for `COc1ccc(C(CC(=O)Nc2ccc(C)cn2)N2Cc3ccccc3C2=O)cc1OC` (configuration not stated), the inhibition is 3.84%. As to `CCOC(=O)N1CCC(NC(=O)c2ccc3c(c2)N(Cc2cccc(C)c2)C(=O)c2ccccc2S3(=O)=O)CC1`, the inhibition is -13.7%. Next, `CCOc1ccccc1C1N=C(N)Nc2nc3ccccc3n21` (configuration not stated): -8.51%; `CCOC(=O)c1c(S(=O)(=O)N2CCC(C(=O)N3CCN(c4cccc(C)c4C)CC3)CC2)c(C)n(C)c1C`: 15.6%; `CC1CCCN(CCOCCOc2ccc(Cl)cc2Br)C1` (configuration not stated): active: 83.2%.

Consider `Cc1ccccc1-c1nnc(CN2CCN(c3cc(Cl)ccc3C)CC2)o1`, for which the inhibition is 6.02%. Next, `COc1ccc2c(C(=O)CN3CCN(c4ccccc4)CC3)c[nH]c2c1`: active: 41.1%; `CCOc1ccc(C(=O)Nc2c(C(=O)c3ccccc3)oc3ccccc23)cc1`: -7.08%; `O=C(CSc1nnc(COc2ccc(Cl)cc2)o1)Nc1ccccc1`: 17.9%. Take `O=S(=O)(Nc1cccc(Cl)c1)c1ccc2[nH]c3c(c2c1)CCCCCC3`: the inhibition stood at 21.8%. As for `COc1ccc(N2CCN(C(=O)Cc3coc4ccc(C)cc34)CC2)cc1`, the inhibition was found to be 6.04%.

With `CCc1ccc(CNC(=O)c2ccc(CSc3nc4ccncc4n3Cc3ccc(OC)cc3)cc2)cc1`, the inhibition came to 3.32%. Consider `COc1ccc(C)cc1NC(=O)C(=O)NCCc1sc(-c2ccc(Cl)cc2)nc1C`, for which the inhibition worked out at 19.1%. For the molecule `CC(C)Oc1cccc(NC(=O)C2CCN(S(=O)(=O)Cc3ccccc3)CC2)c1`, the inhibition came out at 0.933%.

As to `CCN(CC)C(=O)C1=C(C)Nc2nc3ccccc3n2C1c1ccc(Br)cc1` (configuration not stated), the inhibition is -9.36%.

With `CCc1noc(-c2ccc(NC(C)c3ccccc3)c([N+](=O)[O-])c2)n1` (configuration not stated), the inhibition came out at 0.333%.

Turning to `CC(=O)c1cccc(NC(=O)CCS(=O)(=O)c2cc3c(cc2C)NC(=O)CO3)c1`, the inhibition is -1.37%. Next, `CCOC(=O)c1c(NC(C)=O)c2c3c(sc2n1Cc1nc(-c2ccc(Cl)cc2)oc1C)CCCC3`: 8.57%; `COc1ccc(-n2nc(C(=O)NCCc3ccc(Cl)cc3)c3c4ccccc4n(C)c3c2=O)cc1Cl`: -1.16%.

Consider `O=C(Cn1c(=O)n(Cc2ccco2)c(=O)c2ccc(C(=O)NC3CCCC3)cc21)Nc1ccc(F)cc1`, for which the inhibition was -2.43%. `Cc1ccc(-c2ccc(CCC(=O)O)n2C(C)C)cc1`: the inhibition is active: 32.6%. For `COc1ccccc1N1CCN(Cc2nc(N)nc(Nc3ccccc3)n2)CC1`, the inhibition was active: 34%. For `Cc1cc(-c2ccc(C)c(S(=O)(=O)N3CCCC(C)C3)c2)on1` (configuration not stated), the inhibition worked out at 1.2%. Regarding `O=C(Cn1nc2c(cc1=O)CCCC2)Nc1ccc(F)cc1F`, the inhibition was -17.4%. As to `COc1ccc(CCNC(=O)c2c(O)nc3cc(C)ccn3c2=O)cc1OC`, the inhibition was -16.2%. For the molecule `CCc1nn(CC(=O)NCc2ccco2)c(=O)c2cc3cc(F)ccc3n12`, the inhibition amounted to 0.177%. `Cc1ccc(NC(=O)c2nc(S(C)(=O)=O)ncc2N(Cc2cccc(F)c2)Cc2ccco2)cc1C`: the inhibition was 8.32%. Then `Cc1ccc(NC(=O)CCCc2nnc3n(C)c(=O)c4sccc4n23)cc1C`, with 3.95%; and `CCOc1ccccc1N1CCN(CC(O)COc2ccc3c(C)cc(=O)oc3c2)CC1` (configuration not stated), with active: 64.8%. Then `Cc1cccc(NC(=O)c2c(C)nc3ccccn23)c1`, with active: 40.1%; and `COc1ccc(OC)c(NC(=O)Cn2nc3c(cc2=O)CCCC3)c1`, with -5.98%.
